Consider 82 compounds from PubChem BioAssay AID1346428 (National Center for Advancing Translational Sciences (NCATS), 2018).

“And” between values parts separate entries of the source, which are not always exact repeats. Equal values may be shown once. Out of some 48,000 compounds screened, about 1,200 (2.5%) were called active. Inconclusive results (about 2%) are left out.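 The calls were made as follows: active = activation of at least 60% and not above a set upper limit (about 1 call in 100 departs from these limits); inconclusive = activation of 40% to 60%, or above that upper limit; inactive = activation under 40%.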 The list shows a part of the results.

In the experiment the target is Probable G-protein coupled receptor 32 (Homo sapiens) (UniProt O75388). The experiment in a line: qHTS for Agonists of Human Resolvin D1 Receptor DRV1. Also: 0% is about no effect. The conditions noted are these: CHO-K1 GPR32 beta-arrestin PathHunter luminescence, 90 min; at 76.9 µM; stronger effect = higher value; zero percent set by DMSO-only wells. The gist of the method: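 Agonism was scored by beta-Gal fragment complementation (chemiluminescent read, 1 h detection at ambient temperature) reporting beta-arrestin binding to GPR32 in engineered CHO-K1 cells. Compound treatment lasted 90 min at 37 C, normalized to a DMSO basal control.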
Sequence of UniProt O75388 (O75388 whole entry, looked up, the tested form may be a part): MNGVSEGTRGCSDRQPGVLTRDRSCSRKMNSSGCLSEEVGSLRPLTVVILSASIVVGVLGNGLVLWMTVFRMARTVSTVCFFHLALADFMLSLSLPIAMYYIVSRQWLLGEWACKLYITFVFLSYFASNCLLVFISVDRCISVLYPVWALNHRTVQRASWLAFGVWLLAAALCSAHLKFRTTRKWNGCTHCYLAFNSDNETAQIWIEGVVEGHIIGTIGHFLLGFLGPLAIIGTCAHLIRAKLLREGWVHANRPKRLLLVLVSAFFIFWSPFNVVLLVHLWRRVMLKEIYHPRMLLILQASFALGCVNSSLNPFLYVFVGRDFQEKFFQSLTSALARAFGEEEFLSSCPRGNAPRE
Background: Quantitative high-throughput screening tests each substance at several concentrations.
Take `COc1ccc(CNC(=O)Cn2c(=O)nc(-c3ccccc3)c3cc(Cl)ccc32)cc1OC`: the activation is inactive: -15.6%.

Regarding `CCCSCCCNC(=O)C1CCN(C(=O)c2cnn(-c3ccccc3)c2-n2cccc2)CC1`, the activation is inactive: -15.4%.

For `COc1cccc(C(=O)Nc2ccc(-n3nncc3-c3ccccc3)cc2)c1OC`, the activation is inactive: -16.6%.

Take `Cc1cccc(N2CCN(C(=O)Cn3nc(C)c4sc5ccccc5c4c3=O)CC2)c1C`: the activation was inactive: -4.14%.

`Cc1ccsc1/C=C/C1=NCCCN1C`: the activation was inactive: 2.55%.

As to `O=C(COc1ccc(Cl)cc1)N(Cc1ccco1)Cc1ccco1`, the activation is inactive: -4.23%.

Regarding `COc1ccc(OC)c(NC(=O)CSC2=Nc3ccccc3C3=NC(CCC(=O)NCc4ccccc4)C(=O)N23)c1` (configuration not stated), the activation was inactive: -3.95%.

As to `Cc1nc2ccn(Cc3cccs3)c(=O)c2cc1C(=O)NCc1ccc(Br)cc1`, the activation is inactive: -15%.

On to `COc1ccccc1CNC(=O)CCC(=O)N1CC(C)Sc2ccccc21` (configuration not stated), for which the activation was inactive: -21.2%.

On to `Cc1c(C(=O)N(C)C)sc2c1c(=O)n(-c1ccc(Cl)c(Cl)c1)c(=O)n2CC(=O)C(C)(C)C`, for which the activation was inactive: -6.67%.

With `COc1ccc(C(=O)Nc2cccc(-c3cn4ccsc4n3)c2)c(OC)c1`, the activation was inactive: -12.2%.

Regarding `Cc1cccc(N2CCN(C(=O)CN3C(=O)COc4ccc(S(=O)(=O)N5CCC(C)CC5)cc43)CC2)c1C`, the activation was inactive: -6.86%.

For `CCc1nn(CC(=O)N2CCC(C)CC2)c(=O)c2cc3occc3n12`, the activation was inactive: -7.72%.

As to `CCCN(c1ccc(C(C)C)cc1)S(=O)(=O)c1ccc2c(c1)n(C)c(=O)c(=O)n2C`, the activation is inactive: -1.95%.

As to `Cc1csc2nc(COC(=O)c3cccc(NC(=O)c4cccc(Cl)c4)c3)cc(=O)n12`, the activation was inactive: -5.29%.

Regarding `Cc1ccc(NC(=O)CSc2nc3ccccc3n2CC(=O)N2CCC(C)CC2)cc1C`, the activation is inactive: 5.38%.

With `CCOc1ccc(N(CC(=O)Nc2cc(OC)cc(OC)c2)S(=O)(=O)c2c(C)[nH]c(=O)[nH]c2=O)cc1`, the activation was inactive: -14.9%.

For the compound `CCC(=O)Oc1cc(C(C)(C)C)cc2cc(-c3nc(-c4ccc(OC)cc4OC)no3)c(=O)oc12`, the activation is inactive: -0.602%.

Turning to `Cc1ccc(-n2nc3c(N4CCC(C(=O)NC5CCC(C)CC5)CC4)nnc(C)c3c2C)cc1` (configuration not stated), the activation was inactive: 14.7%.

As to `Cc1ccc2sc(N(Cc3cccnc3)C(=O)Cc3ccccc3)nc2c1C`, the activation was inactive: -15.3%.

As to `CC1=C(C(N)=O)C(c2cccc(O)c2)n2ncnc2N1` (configuration not stated), the activation was active: 60.7%.

Take `O=C(c1cccs1)c1cn(CCOc2ccc(Cl)cc2)c2ccccc12`: the activation is inactive: -10.4%.

Consider `Cc1ccc(C(=O)c2cn(Cc3ccccc3F)c3cc4c(cc3c2=O)OCCO4)cc1`, for which the activation was inactive: 27.1%.

For the compound `C[N+](C)(C)CCOC(=O)CCC(=O)OCC[N+](C)(C)C`, the activation is inactive: 0.499% and inactive: 1.01%.

For the compound `CCOc1ccccc1NC(=O)C1CCC(CNS(=O)(=O)c2ccc3c(c2)CCCC(=O)N3)CC1` (configuration not stated), the activation is inactive: -16.9%.

Take `Cc1ccc(C)c(NC(=O)CN(C)S(=O)(=O)c2cccc3cccnc23)c1`: the activation was inactive: -4.74%.

For the compound `Cc1ccc(Cl)cc1N1CCN(CCCNC(=O)Cn2ncc3c([nH]c4ccccc43)c2=O)CC1`, the activation is inactive: -7.97%.

Consider `Cc1ccc(C(=O)Nc2ccccc2C(=O)OCc2cc(=O)n3nc(C(C)C)sc3n2)cc1`, for which the activation is inactive: -9.73%.

In the case of `COc1ccc(CC(=O)NCCS(=O)(=O)N2CCN(c3ccccc3F)CC2)cc1OC`, the activation was inactive: -17.6%.

Regarding `Cc1ccc(C)c(NC(=O)CSc2nc(-c3ccccc3)c(C#N)c(=O)[nH]2)c1`, the activation was inactive: 27.9%.

In the case of `CCOc1ccc(CCNC(=O)c2cccc(Nc3nc4ccccc4nc3-n3nc(C)cc3C)c2)cc1OCC`, the activation is inactive: -11.5%.

As to `O=C(CC1N=C2c3ccccc3N=C(SCc3ccc(F)cc3)N2C1=O)NC1CCCCC1` (configuration not stated), the activation is inactive: -16.2%.

On to `CCOc1ccc(N(C(=O)c2ccc(Cl)cc2)S(=O)(=O)c2ccc3c(c2)n(C)c(=O)n3C)cc1`, for which the activation was inactive: -6.23%.

In the case of `Cc1cccc(NC(=O)Cn2c(=O)n(Cc3ccccc3)c(=O)c3sc4ccccc4c32)c1`, the activation is inactive: -0.886%.

`Fc1ccc(-c2noc3ncnc(Nc4ccc(F)cc4F)c23)cc1`: the activation is inactive: 22.9%.

In the case of `CCc1cccc(C)c1Nc1c(-c2ccc(SC)cc2)nc2sccn12`, the activation is inactive: -13.4%.

For the compound `Cc1ccc(CNc2nc3ccc(Cl)cc3n3cnnc23)cc1`, the activation is inactive: -25.9%.

As to `COC(=O)c1ccccc1NC(=O)C1=CC(c2ccc3c(c2)OCO3)=NS(=O)(=O)N1C`, the activation was inactive: 4.8%.

As to `COc1ccc(S(=O)(=O)c2c(Nc3c(C)cccc3C)sc(C(=O)c3ccc(F)cc3)c2N)cc1`, the activation is inactive: -22.7%.

As to `Cc1cccc(-c2nc(CCNC(=O)COc3ccccc3)cs2)c1`, the activation is inactive: -23.2%.

Turning to `Cc1cccc(NC(=O)CSc2ncc(-c3ccc(Br)cc3)[nH]2)c1`, the activation is inactive: -33.9%.

On to `O=C(CSc1ccc(-c2cccs2)nn1)Nc1ccccc1`, for which the activation is inactive: 7.42%.

Consider `Cc1ccc(CN(Cc2ccco2)C(=O)c2ccc(Cl)cc2Cl)cc1`, for which the activation was inactive: 9.47%.

In the case of `COc1ccc(CCNC(=O)Cn2nnc(-c3ccc(Cl)cc3)n2)cc1OC`, the activation is inactive: -9.45%.

As to `COc1ccc(-c2cc(-c3ccccc3)nc(SCC(=O)Nc3ccccc3C)c2C#N)cc1`, the activation is inactive: -6.44%.

Turning to `COc1cccc(CNc2nc3ccccc3c3nc(-c4cccc(C)c4)nn23)c1`, the activation was inactive: -15.9%.

On to `CCN1CCc2nc(N)oc2CC1`, for which the activation is inactive: 7.77% and inactive: -1.86%.

Take `CC(=O)c1cccc(NC(=O)Nc2c(C)n(C)n(-c3ccccc3)c2=O)c1`: the activation is inactive: -1.39%.

Turning to `CCN1CCc2c(sc(NC(=O)c3ccc(S(=O)(=O)N(CCOC)CCOC)cc3)c2C(N)=O)C1`, the activation was inactive: -45.3%.

For the compound `Cc1ccc(-c2nc3cc(NC(=O)c4cc5ccccc5o4)ccc3o2)cc1Cl`, the activation was inactive: 10.9%.

For `CCOCCCn1c(SCC(=O)Nc2cc(C)ccc2C)nc2c(oc3ccccc32)c1=O`, the activation is inactive: 7.73%.

For the compound `COC(=O)c1ccc(NC(=O)CN2CCCN(Cc3ccc(Cl)cc3)S2(=O)=O)cc1`, the activation was inactive: 7.73%.

Consider `CC(NC(=O)CN1C(=O)COc2ccc(S(=O)(=O)N3CCCCCC3)cc21)c1ccccc1` (configuration not stated), for which the activation is inactive: -40.3%.

Turning to `Cc1ccc(Sc2c(C(=O)NCc3cccc(F)c3)[nH]c3ccccc23)cc1`, the activation was inactive: 0.638%.

Take `CC(C)Oc1ccc(CN2CCc3nc(Nc4ccc5c(c4)OCCO5)ncc3C2)cc1`: the activation is inactive: -25.6%.

`CN(C)CCNC(=O)c1ccc(-n2c(-c3ccccc3)cc3c2CCCCC3)cc1`: the activation was inactive: -25.2%.

Regarding `Cc1[nH]n(-c2ccccc2)c(=O)c1C(c1cc(Cl)ccc1O)c1c(C)[nH]n(-c2ccccc2)c1=O`, the activation is inactive: -31.6%.

As to `CC1=C(C(=O)Nc2ccccc2)C(c2ccccc2C)n2nc(SCC(=O)c3ccc(C)cc3)nc2N1` (configuration not stated), the activation is inactive: -13.8%.

Turning to `COCCCNc1nc2c(S(=O)(=O)c3ccccc3)nnn2c2ccc(Cl)cc12`, the activation was inactive: 3.4%.

Take `O=C(NCc1cccs1)c1nn(-c2ccccc2Cl)nc1CO`: the activation is inactive: -8.05%.

Regarding `CCOC(=O)c1ccccc1NC(=O)N1CCN(Cc2cc(=O)n3nc(-c4ccccc4)sc3n2)CC1`, the activation was inactive: 2.83%.

Consider `Cc1cccc(NC(=O)CSc2nc(-c3cccs3)cc(C(F)(F)F)c2C#N)c1C`, for which the activation was inactive: -11.9%.

Consider `COC(=O)c1c(-c2cccs2)csc1NC(=O)c1cccc(Cl)c1`, for which the activation was inactive: -16.8%.

With `COC(=O)c1c(-c2cccs2)csc1NC(=O)c1ccc(Br)cc1`, the activation was inactive: 33.7%.

Take `CCOc1ccc(-c2cc(CCCC(=O)NCCc3ccc(Cl)cc3)no2)cc1`: the activation is inactive: 1.29%.

In the case of `O=C(NCCc1csc(-c2ccc(C(F)(F)F)cc2)n1)c1ccc(F)c(F)c1`, the activation was inactive: 41%.

As to `CCc1ccc(NC(=O)CCS(=O)(=O)c2cc3c(cc2Cl)NC(=O)CO3)cc1`, the activation was inactive: -0.978%.

With `CCN(c1cccc(C)c1)S(=O)(=O)c1ccc(-n2cccn2)cc1`, the activation was inactive: 23.7%.

As for `Cc1ccc(-c2cc(C(=O)NCc3cnn(C)c3C)c3ccccc3n2)cc1C`, the activation was inactive: 31.3%.

With `Cc1ccc(C(=O)N2CCc3cc(CNC(=O)CSc4ccccc4)ccc32)cc1`, the activation was inactive: -36.3%.

With `CCN(c1ccccc1)S(=O)(=O)c1cc(Br)cc2c1N(C(=O)C1CC1)CC2`, the activation was inactive: -8.21%.

`Cc1cccc(-c2c3c(=O)n(C)c(=O)n(C)c3c3c(C)nc4ccccc4n23)c1`: the activation is inactive: -7.69%.

`N#Cc1ccc(S(=O)(=O)N2CCC(Oc3cccc(C(F)(F)F)c3)CC2)cc1`: the activation is inactive: -6.12%.

As for `COc1ccc(CNC(=O)C(=O)Nc2c3c(nn2-c2ccccc2)CSC3)cc1`, the activation was inactive: -29.3%.

Regarding `COc1cc(OC)c(OC)cc1CN1CCc2nc(Nc3ccc4c(c3)OCCO4)ncc2C1`, the activation is inactive: -8.15%.

As to `CCCNC(=O)C1=CC(c2ccc3c(c2)OCO3)=NS(=O)(=O)N1C`, the activation is inactive: -3.12%.

As for `COc1cccc(C2c3c(oc4cc(C)cc(C)c4c3=O)C(=O)N2CCc2ccc(OC)c(OC)c2)c1` (configuration not stated), the activation is inactive: -2.91%.

With `COc1ccc(NC(=O)CCS(=O)(=O)c2nc(-c3cccs3)cc(C(F)(F)F)n2)cc1`, the activation was inactive: -31.6%.

Regarding `CCCc1cc(=O)n2c(C(=O)Nc3ccc(OCC)cc3)c(C(=O)Nc3ccc(C)cc3)sc2n1`, the activation was inactive: 1.3%.

As to `CN(CC(=O)NCc1ccc(Cl)cc1)S(=O)(=O)c1ccc2[nH]c3c(c2c1)CCCC3`, the activation is inactive: 11.4%.

On to `COc1ccc(CNc2nc(-c3ccccc3)nn2S(=O)(=O)c2ccccc2)cc1`, for which the activation is inactive: -4.79%.

`COc1ccccc1CNC(=O)CCC1N=C2c3ccccc3N=C(SCC(=O)Nc3ccc(F)cc3)N2C1=O` (configuration not stated): the activation is inactive: -14.5%.
